{
  "source": "PubChem BioAssay AID1745845",
  "about": "(National Center for Advancing Translational Sciences (NCATS), 2022)",
  "note": "Among all 360,000 compounds or so, about 2,600 (0.72%) were called active. The inconclusive results got no clear call from the source; some entries with a clear call stand among them for comparison. Calls come from the whole dose curve; as a rule, active = well fitted inhibition curve with a large enough effect; inconclusive = small, poorly fitted or top-dose-only effect; inactive = no such curve, though single readings can be large or run the other way. Where the call is inconclusive, the potency comes from a doubtful curve fit. Potency is the fitted concentration of half-maximal effect; tags give direction and shape of the fitted curve.",
  "data": [
    {"assay": "Primary qHTS for Inhibitors of ATXN expression; note: nearly all actives have a fitted effect of over 55% in size", "settings": "HEK-293 ATXN2-luciferase reporter, luminescence, 24 h; series mostly up to 57 µM", "in_short": "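qHTS (up to 57 uM final) was run with 24 h compound exposure of reporter cells at 37 °C. Each well was multiplexed: SteadyGlo luminescence measured ATXN2-luciferase expression after a fluorogenic Gly-Phe-AFC viability readout (25 uM final).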", "values": [
      {"smiles": "COCC(=O)OC1CCn2c1nc1c2C(=O)C(C)=C(NC(C)=O)C1=O", "note": "(stereo not drawn)", "Potency": "active: 10 µM"},
      {"smiles": "COC(=O)c1[nH]c2ccccc2c1NC(=O)CN1CCN(C/C=C/c2ccccc2)CC1", "Potency": "inconclusive: 28.2 µM [inhibitor, single point]"},
      {"smiles": "COc1ccc(CC(N)c2csc(NC(=O)Nc3ccccc3C(C)(C)C)n2)cc1", "note": "(stereo not drawn)", "Potency": "inconclusive: 39.8 µM [inhibitor, single point]"},
      {"smiles": "CCCC(C)C1c2c(c(C)c(C)oc2=O)Oc2c(C)c(C)oc(=O)c21", "note": "(stereo not drawn)", "Potency": "inconclusive: 28.2 µM [inhibitor, partial curve, poor fit]"},
      {"smiles": "CN1CCN(c2ccc(CNS(=O)(=O)Cc3ccc(Cl)cc3)cc2)CC1", "Potency": "inconclusive: 35.5 µM [inhibitor, partial curve, poor fit]"},
      {"smiles": "CCc1cc2c(C)ccc(C)c2nc1SCC(=O)Nc1c(C)[nH]c(=O)[nH]c1=O", "Potency": "inconclusive: 39.8 µM [inhibitor, single point]"},
      {"smiles": "O=C(C[C@H]1C(=O)N(CCc2ccccc2)C[C@@H]1Cc1ccccc1)Nc1ccc(Br)cc1", "Potency": "inconclusive: 31.6 µM [inhibitor, single point]"},
      {"smiles": "COC(=O)c1cc(S(=O)(=O)NCC2CCN(Cc3cccc(F)c3)CC2)c[nH]1", "Potency": "inactive"},
      {"smiles": "Cc1csc(N/N=C/c2ccccn2)n1", "Potency": "active: 14.1 µM"},
      {"smiles": "C[C@H](O)[C@@H]1C(=O)N2CCc3c([nH]c4ccccc34)[C@@H]2C[C@@H]1N(C)C(=O)c1cc(Cl)cc(Cl)c1", "Potency": "inconclusive: 35.5 µM [inhibitor, single point]"},
      {"smiles": "CCCCCCN1C[C@@H](n2cc(-c3ccc(F)cc3)nn2)[C@H](O)C[C@@H]1c1ccc(OC)cc1", "Potency": "inconclusive: 35.5 µM [inhibitor, single point]"},
      {"smiles": "COc1ccc(OC)c(NC(=O)CSCc2cnn(-c3ccccc3)c2-n2cccc2)c1", "Potency": "inactive"},
      {"smiles": "CCOC(=O)C1=C(CNCc2ccc(C)cc2)NC(=O)NC1c1ccc(OC)cc1", "note": "(stereo not drawn)", "Potency": "inactive"},
      {"smiles": "Cc1cc(NC(=O)c2c(F)cccc2Cl)n(-c2nc3ccccc3[nH]2)n1", "Potency": "inconclusive: 28.2 µM [inhibitor, single point]"},
      {"smiles": "Cc1cc2c3c(c1)C(C)(c1ccccc1)CC(C)(C)N3C(=O)C21C(C#N)=C(N)OC2=C1C(=O)CC(C)(C)C2", "note": "(stereo not drawn)", "Potency": "inconclusive: 39.8 µM [inhibitor, single point]"},
      {"smiles": "CCOC(=O)c1[nH]c(C)c(/C(O)=C2\\C(=O)C(=O)N(CCCN3CCOCC3)C2c2cccs2)c1C", "note": "(stereo not drawn)", "Potency": "inactive"},
      {"smiles": "CC(C)(C)c1ccc(/C=N/NC(=S)NCc2ccccc2)cc1", "Potency": "inactive"},
      {"smiles": "COc1ccc(OC)c2sc(N(CCN(C)C)C(=O)/C=C/c3cccs3)nc12", "Potency": "inconclusive: 25.1 µM [inhibitor, single point]"}
    ]}
  ]
}
